Test results published in PubChem BioAssay (NCI).
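Compound exposure: 48 hours, 5 concentrations, 96-well plates. Here, GI50 denotes the concentration required for 50% inhibition of growth. TGI marks complete inhibition of growth.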

System: NCI-H322M lung
Test: NCI anticancer screen, dose series, 48 h

CCC1=Cc2cc(OC)ccc2OC12C=Cc1cc(OC)ccc1O2 (configuration not stated)
GI50: 740 nM | TGI: > 100000 nM
